Source: PubChem BioAssay AID1346428 (National Center for Advancing Translational Sciences (NCATS), 2018)
About 1,200 (2.5%) of roughly 48,000 compounds were called active. About 2% were inconclusive and are not listed.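 The calls were made as follows: active = activation of at least 60% and not above a set upper limit (about 1 call in 100 departs from these limits); inconclusive = activation of 40% to 60%, or above that upper limit; inactive = activation under 40%.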 The list shows a part of the results.

biological target: Probable G-protein coupled receptor 32 (Homo sapiens) (UniProt O75388); experiment: qHTS for Agonists of Human Resolvin D1 Receptor DRV1; conditions: CHO-K1 GPR32 beta-arrestin PathHunter luminescence, 90 min; at 76.9 µM; active compounds read high; zero percent set by DMSO-only wells; also: 0% is about no effect
Method in brief: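 Agonism was scored as beta-arrestin recruitment to ProLink-fused GPR32 in stably transfected CHO-K1 cells, giving a chemiluminescent beta-Gal signal; compounds were incubated 90 min at 37 °C.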

Sequence of UniProt O75388 (O75388 whole entry, looked up, the tested form may be a part): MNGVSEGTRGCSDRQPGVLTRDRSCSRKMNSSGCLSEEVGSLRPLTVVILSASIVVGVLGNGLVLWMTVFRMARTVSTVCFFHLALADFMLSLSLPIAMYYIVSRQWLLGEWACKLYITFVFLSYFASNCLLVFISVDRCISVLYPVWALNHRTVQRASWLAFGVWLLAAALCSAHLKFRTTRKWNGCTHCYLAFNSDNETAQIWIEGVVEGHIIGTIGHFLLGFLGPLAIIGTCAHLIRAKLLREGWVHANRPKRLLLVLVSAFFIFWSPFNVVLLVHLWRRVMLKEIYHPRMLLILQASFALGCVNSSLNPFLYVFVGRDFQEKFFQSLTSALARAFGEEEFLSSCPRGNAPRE

activation, inactive:
COc1ccc(Cn2c(C(=O)O)c(CNCC(C)c3ccccc3)c3ccc(OC)cc32)cc1 (stereo not drawn) 25.7%
Cc1cccc(Cc2cnc(NC(=O)C3Cc4ccc(C)cc4C(=O)O3)s2)c1 (stereo not drawn) 18.2%
COc1ccccc1N1CCN(C(=O)C2CCN(S(=O)(=O)c3c(C)noc3/C=C/c3ccc(C)cc3)CC2)CC1 -2.11%
CCCCn1c(SCC(=O)Nc2cccc(OC)c2)nc2c(sc3ccccc32)c1=O -15.5%
COc1cccc(Cn2c(=O)n(CC3CCC(C(=O)N4CCCCC4)CC3)c(=O)c3sccc32)c1 (stereo not drawn) -11.5%
CC(C)NC(=O)CCn1c(SCc2c(F)cccc2Cl)nc2c(sc3ccccc32)c1=O -14%
CCOC(=O)N1CCN(Cc2nc3cc(NC(C)=O)ccc3n2C(C)C)CC1 -8.63%
Cc1cc(C)cc(-n2c(SCC(=O)NCc3ccco3)nc3c([nH]c4ccccc43)c2=O)c1 17.3%
COc1ccc(NC(=O)NCCc2c(C)nn(C)c2C)c(OC)c1 -5.25%
Cc1nnc2c(N3CCN(c4ccccc4F)CC3)nc3ccccc3n12 0.37%
COc1cccc(NC(=O)CSc2nnc(COc3ccc(Cl)cc3)o2)c1 16.3%
Cc1ccc2c(c1)c(=O)c1ccccc1n2CCCC(=O)Nc1ccc(C)c(F)c1 8.33%
Cc1cc(-n2c(SCC(=O)NCc3ccccc3)nc3ccsc3c2=O)ccc1Cl -21.2%
CCOC(=O)c1cc(-c2ccc(C)cc2)n(CCC(=O)Nc2nc3c(C)cccc3s2)c1C -0.766%
Cc1ccc(S(=O)(=O)c2cnc(SCC(=O)Nc3cccc(Cl)c3)nc2N)cc1C 38.1%
COc1ccc(C(CC(=O)O)NC(=O)c2cc3ccccc3oc2=O)cc1OC (stereo not drawn) 34.2%
CCN(CC)C(=O)Cn1cc(SCC(=O)Nc2cccc(F)c2)c2ccccc21 -6.96%
CCOC(=O)c1cnc2c(C)cc(C)cc2c1Nc1cccc(C(=O)O)c1 -0.618%
CCOCCCNC(=O)CN1C(=O)COc2ccc(S(=O)(=O)N3CCCCCC3)cc21 -11.9%
Cc1cccc(Cn2c(=O)n(Cc3ccc(C(=O)NC4CCN(Cc5ccccc5)CC4)cc3)c(=O)c3ccccc32)c1 -5.17%
Oc1ccc(Nc2nc3ccccc3n3cnnc23)cc1 37.5%
O=C(Nc1cccc2cccnc12)c1ccccc1[N+](=O)[O-] -9.16%
Cc1ccc(C2c3c(-c4cc(C)ccc4O)n[nH]c3C(=O)N2Cc2ccco2)cc1 (stereo not drawn) 42.6%
